Results published in PubChem BioAssay AID1346428 (National Center for Advancing Translational Sciences (NCATS), 2018).
Values joined by “and” are separate entries in the source; they are usually repeats but may differ in a detail not shown here. Identical values can stand only once. Screen size: about 48,000 compounds; about 1,200 (2.5%) were called active. About 2% were inconclusive and are not listed.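 The calls were made as follows: active = activation of at least 60% and not above a set upper limit (about 1 call in 100 departs from these limits); inconclusive = activation of 40% to 60%, or above that upper limit; inactive = activation under 40%.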 The list shows a part of the results. Some compounds were tested as several samples or in several runs, with calls that do not always agree.

target: Probable G-protein coupled receptor 32 (Homo sapiens) (UniProt O75388); test: qHTS for Agonists of Human Resolvin D1 Receptor DRV1; conditions: CHO-K1 GPR32 beta-arrestin PathHunter luminescence, 90 min; at 76.9 µM; stronger effect = higher value; zero percent set by DMSO-only wells
Sequence of UniProt O75388 (O75388 whole entry, looked up): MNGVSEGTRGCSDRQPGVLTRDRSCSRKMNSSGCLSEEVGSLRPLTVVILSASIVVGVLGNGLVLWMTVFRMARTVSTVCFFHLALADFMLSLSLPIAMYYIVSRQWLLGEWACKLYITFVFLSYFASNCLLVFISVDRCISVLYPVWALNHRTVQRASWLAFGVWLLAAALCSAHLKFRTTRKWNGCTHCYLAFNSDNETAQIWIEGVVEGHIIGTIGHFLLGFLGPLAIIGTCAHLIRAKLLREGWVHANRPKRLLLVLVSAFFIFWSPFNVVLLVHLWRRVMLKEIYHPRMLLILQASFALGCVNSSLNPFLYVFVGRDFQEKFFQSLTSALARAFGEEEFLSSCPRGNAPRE
In short: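 Using DMSO wells as EC0, agonist-induced signal was taken as chemiluminescence from beta-Gal reconstituted upon beta-arrestin recruitment to GPR32 in CHO-K1 cells after 90 min compound treatment.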

| Compound | activation |
| --- | --- |
| COc1ccc(NC(=O)c2cccn2-c2nnc(N3CCCCC3)s2)cc1Cl | inactive: -18.3% |
| COc1ccccc1NC(=O)CN1CCCN(S(=O)(=O)c2ccc(Br)cc2)CC1 | inactive: -38.7% |
| Cc1nc2ccccn2c(=O)c1NC(=O)c1ccc(C(F)(F)F)cc1 | inactive: -4.15% |
| CCOc1ccc(NC(=O)Cn2c(C)cc3ccccc3c2=O)cc1 | inactive: -6.55% |
| Cc1ccc(NC(=O)Cn2c(=O)n(CCCCC(=O)NCc3ccccc3Cl)c(=O)c3ccccc32)cc1C | inactive: -5.63% |
| CCOc1ccccc1OCCN[C@H](C)Cc1ccc(OC)c(S(N)(=O)=O)c1 | inactive: 16% |
| O=c1c2oc3ccccc3c2n(Cc2ccccc2Cl)c(=O)n1Cc1ccco1 | inactive: -13.2% |
| O=C(Nc1ccc2nc(SCC(=O)N3CCc4ccccc43)sc2c1)c1ccc(F)cc1 | inactive: -0.435% |
| COc1ccc(CN(Cc2ccco2)c2cnc(S(C)(=O)=O)nc2C(=O)Nc2ccc(C)c(Cl)c2)cc1 | inactive: -14.6% |
| CCCc1nc(SC)ncc1C(=O)N1CCN(c2ccc(Cl)cc2)CC1 | inactive: 12.6% |
| CCCn1c(SCc2nc(-c3ccc(OC)c(OC)c3)no2)nnc1-c1ccccc1 | inactive: -26.4% |
| Cc1ccc(NC(=O)c2cnn3c(C(F)F)cc(-c4ccccc4)nc23)cc1F | inactive: -18% |
| O=C(NCCc1ccccc1)C1CCC(CNS(=O)(=O)c2ccccc2)CC1 (configuration not stated) | inactive: -13.1% |
| CC(C)Oc1ccc(C(=O)N2CCN(CCc3ccccn3)CC2)cc1 | inactive: 26.8% |
| CC1CCc2nn(CC(=O)Nc3ccccc3Cl)cc2C1 (configuration not stated) | inactive: -14.4% |
| COc1ccc(OC)c(CNC(=O)c2ccc(-c3nc(CSc4ccccc4)c(C)o3)cc2)c1 | inactive: -10% |
| CCOc1ccc(NC(=O)NCCc2c(C)nn(C)c2C)cc1 | inactive: 14.5% |
| COc1cccc(S(=O)(=O)N2CCN(Cc3ccc4c(c3)OCO4)CC2)c1 | inactive: -11.6% |
| CN(Cc1ccccc1)S(=O)(=O)c1ccc(-c2cnc(C3CC3)o2)cc1 | inactive: 0.499% |
| Cc1c(C2=CCN(S(=O)(=O)c3cccc(Cl)c3)CC2)c2ccccc2n1CC(=O)N1CCCC1 | inactive: -18.9% |
| Cc1ccc(NC(=O)C(C)Sc2nc(=O)cc(N)n2-c2cccc(C)c2)cc1 (configuration not stated) | inactive: -16.5% |

| Compound | activation |
| --- | --- |
| COc1ccc(NC(=O)C(=O)NCC(c2cccnc2)N2CCc3ccccc32)cc1OC (configuration not stated) | inactive: -24.3% |
| Cc1cccc(N2CCN(C(=O)CN3CCSc4ccccc43)CC2C)c1 (configuration not stated) | inactive: 7.62% |
| CCc1ccc(-c2nc3c(c(SCc4ccccc4F)n2)Cc2c(CO)cnc(C)c2O3)cc1 | inactive: 9.03% |
| CCOC(=O)c1ccc(NC(=O)Cn2cc(C(=O)c3ccc(CC)cc3)c(=O)c3ccc(C)nc32)cc1 | inactive: 15.9% |
| CCN1c2ccccc2-c2nc(SCC(=O)NCc3ccc(C)cc3)ncc2S1(=O)=O | inactive: -5.87% |
| CCOC(=O)c1cnc2ccccc2c1NCCc1ccc(OC)c(OC)c1 | inactive: -4.73% |
| COc1ccc(CNC(=O)c2cnc3sc(N4CCCCCC4)nn3c2=O)cc1 | inactive: -2.47% |
| COC(=O)C1=C(c2ccccc2)c2ccccc2S(=O)(=O)N1CC(=O)Nc1ccc(F)c(F)c1 | inactive: -7.13% |
| Cc1ccc(CNC(=O)Cn2c(=O)cc(C(F)(F)F)c3c(C)nn(C)c32)cc1 | inactive: -0.698% |
| Cc1sc2ncn(CC(=O)N3CCN(c4ccc(F)cc4)CC3)c(=O)c2c1S(=O)(=O)N1CCC(C)CC1 | inactive: -5.88% |
| Cc1ccc(CNC(=O)C2CCN(S(=O)(=O)c3c(C)noc3/C=C/c3cccs3)CC2)cc1 | inactive: -25.5% |
| CCOc1ccc(NC(=O)CN(c2ccc(CC)cc2)S(=O)(=O)c2c(C)noc2C)cc1 | inactive: -31.1% |
| CCOc1ccc(-c2nc(Cn3c(=O)cc(-c4ccccc4)c4c(C)nn(C)c43)c(C)o2)cc1 | inactive: -7.11% |
| O=C(CCS(=O)(=O)c1cc2c(cc1Cl)NC(=O)CO2)NCc1ccccc1Cl | inactive: -0.601% |
| CSc1ncc(C(=O)NCc2cccc(F)c2)c(-c2ccccc2)n1 | inactive: 1.79% |
| O=C(NCc1cccc(Cl)c1)c1ccc(NC(=O)N2CC3CCCN3c3ccccc32)cc1 (configuration not stated) | inactive: -17.3% |
| Oc1c(C(c2ccc(Cl)cc2Cl)N2CCN(c3ccccc3)CC2)sc2nc(-c3ccco3)nn12 (configuration not stated) | inactive: -5.71% |
| CC(C)Oc1ccc(CNC(=O)c2ccc(CN3CC(=O)N4CCCCC4C3=O)cc2)cc1 (configuration not stated) | inactive: -5.9% |
| Cc1cc(C)cc(Nc2cc(C(=O)NC3CCC(C)CC3)c3ccccc3n2)c1 (configuration not stated) | inactive: -4.85% |
| Cc1ccc(S(=O)(=O)Nc2cc3c(cc2C)n(C)c(=O)c(=O)n3C)c(C)c1 | inactive: -19.5% |
| COc1ccc(CCNC(=O)c2c(C)oc3ncnc(N4CCOCC4)c23)c(OC)c1 | inactive: -8.53% |

| Compound | activation |
| --- | --- |
| O=C(Cn1c(=O)c(C(F)(F)F)nc2ccccc21)Nc1cccc(Br)c1 | inactive: 7.73% |
| Cn1nnnc1SCCCNCc1ccc(-c2ccc(F)c(Cl)c2)o1 | inactive: -2.88% |
| CCc1nc(-c2cc(S(=O)(=O)N3CCN(c4ccccc4F)CC3)ccc2OC)no1 | inactive: -4.8% |
| CN(Cc1ccc(F)cc1)S(=O)(=O)c1nnc(NC(=O)c2ccccc2Cl)s1 | inactive: 11.6% |
| CCCN1C(C(=O)c2ccccc2)=C(OC(=O)c2ccc(OC)cc2)c2ccccc2S1(=O)=O | inactive: -15.9% |
| Cc1cc(=O)n(CC(=O)NCc2ccc(OC(C)C)cc2)c2c1c(C)nn2-c1cccc(F)c1 | inactive: -4.2% |
| Cc1ccc(CNC(=O)C2CCCN(S(=O)(=O)c3cn(C)cn3)C2)cc1 (configuration not stated) | inactive: -11.1% |
| O=C(NCCc1ccccc1)c1ccc(CS(=O)(=O)Cc2ccccc2Cl)o1 | inactive: 1.51% |
| CCc1ccc(NC(=O)CN2C(=O)CCSc3ccccc32)cc1 | active: 63.1% |
| Cc1cc(C)cc(NS(=O)(=O)c2ccc(N3CCCCS3(=O)=O)cc2)c1 | inactive: -2.56% |
| CC(C)Cc1nn2c(=O)cc(COC(=O)c3ccc(NC(=O)CCc4ccccc4)cc3)nc2s1 | inactive: -16.1% |
| O=c1c(N2CCc3ccccc3C2)csc2ccc(Cl)cc12 | inactive: -40.2% |
| Cc1ccc(NC(=O)C(C)Sc2nc(-c3ccccc3)c(C#N)c(=O)[nH]2)c(C)c1 (configuration not stated) | inactive: 38.9% |
| O=C(Nc1nnc(S(=O)(=O)N2CCOCC2)s1)c1ccccc1F | inactive: 36.6% |
| COc1ccc(/C=C/C(=O)Nc2sc(C)c(C)c2C(=O)O)cc1 | inactive: -5.14% |
| CCOc1cc(CN2CCN(S(=O)(=O)c3ccc(C)cc3)CC2)ccc1OC | inactive: -12.9% |
| CC(C)c1cnc2c(c1SCC(=O)N1CCCCC1)c(=O)n(C)c(=O)n2C | inactive: -20.6% |
| COc1ccc(Nc2c(-c3ccc(N4CCOCC4)cc3)nc3ncccn23)cc1OC | inactive: -14.3% |
| CCOC(=O)N1CCc2c(sc3c2c(=O)n(Cc2ccccc2)c(=O)n3CC(=O)Nc2ccc(C)cc2C)C1 | inactive: -2.09% |
| CCn1c(=O)sc2cc(NS(=O)(=O)c3ccc(C)cc3)ccc21 | active: 60.6% |
| CC(=O)Nc1ccc(NC(=O)c2ccc3c(c2)NC(=O)c2ccccc2S3)cc1 | inactive: -5.46% |

| Compound | activation |
| --- | --- |
| CCc1ccc2c(c1)NC(c1ccc(C)cc1)=NC(c1cccs1)=N2 | inactive: -33.6% |
| Cc1ccccc1OCC(=O)Nc1ccc2nc(SCC(=O)N3CCc4ccccc43)sc2c1 | inactive: 9.84% |
| Cc1cccc(N2CCN(S(=O)(=O)c3ccc(-c4cc(C(F)(F)F)on4)s3)CC2)c1C | inactive: -1.41% |
| O=C(C1CCCN(S(=O)(=O)c2ccc(Br)s2)C1)N1CCN(c2cccc(Cl)c2)CC1 (configuration not stated) | inactive: -5.38% |
| COc1ccccc1C1Nc2c(sc3nc(C)cc(C)c23)C(=O)N1c1ccccc1 (configuration not stated) | inactive: -25.3% |
| Cc1ccc(CNc2ncnc3c2cnn3-c2ccc(Cl)cc2)cc1 | inactive: -7.66% |
| OCc1cc(C(O)CNCCCCCCOCCCCc2ccccc2)ccc1O (configuration not stated) | active: 108% and inactive: -1.18% |
| CCC(C)Sc1oc(-c2ccco2)nc1S(=O)(=O)c1ccc(C)cc1 (configuration not stated) | inactive: -13.8% |
| COc1cccc(C2C(C(=O)Nc3ccc(Cl)cc3)=C(C)Nc3nc4ccccc4n32)c1 (configuration not stated) | inactive: 12.6% |
| COc1ccc(OCC(=O)Nc2cc(-c3nc4ccccc4s3)ccc2C)cc1 | inactive: -4.02% |
| C#CCN1C(C)=C(C(=O)OC)C(c2cccc([N+](=O)[O-])c2)C(C(=O)OCC)=C1C (configuration not stated) | inactive: -29.8% |
| COc1ccc(Cl)cc1NC(=O)c1nnn(Cc2cccc(C(F)(F)F)c2)c1N | inactive: -10.3% |
| COc1ccc2c(c1)c1c(c(=O)n(-c3ccc(C)cc3)c(=O)n1CC(=O)NCc1ccc(C)cc1)n2C | inactive: 8.54% |
| Cc1cc2c(cc1C)NC(CC(=O)Nc1cccc(Cl)c1)C(=O)N2 (configuration not stated) | inactive: -20.1% |
| NS(=O)(=O)c1ccc(CCNC(=O)Cn2c(-c3cccs3)cc3ccccc32)cc1 | inactive: 2.26% |
| O=C(O)Cc1sc(-c2ccccc2)nc1-c1ccc(Cl)cc1 | inactive: 34.8% |
| CC(=O)OCC(=O)[C@@]12N=C(C)O[C@@H]1C[C@H]1[C@@H]3CCC4=CC(=O)C=C[C@]4(C)[C@H]3[C@@H](O)C[C@@]12C | inactive: -11.1% |
| O=C(NCC(c1ccc2c(c1)OCO2)N1CCOCC1)C(=O)Nc1ccccc1 (configuration not stated) | inactive: -3.3% |
| CCN(CC)c1ccc(NC(=O)CCc2nc3cccnc3n2Cc2cccs2)c(C)c1 | inactive: -3.51% |
